# The whole screen tested about 310,000 compounds, of which about 14,000 (4.5%) showed an effect of 50% or more. The effect is printed as a negative number. Some of the results follow.
# Target: human ether-à-go-go-related gene (hERG) potassium channel (human, UniProt Q12809)
# Test: primary screen, population patch clamp on CHO cells stably expressing hERG
# 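Also: peak tail current of the secondary pulse compared with the same well before compound.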
# human ether-à-go-go-related gene (hERG) potassium channel, sequence (Q12809 whole entry, looked up): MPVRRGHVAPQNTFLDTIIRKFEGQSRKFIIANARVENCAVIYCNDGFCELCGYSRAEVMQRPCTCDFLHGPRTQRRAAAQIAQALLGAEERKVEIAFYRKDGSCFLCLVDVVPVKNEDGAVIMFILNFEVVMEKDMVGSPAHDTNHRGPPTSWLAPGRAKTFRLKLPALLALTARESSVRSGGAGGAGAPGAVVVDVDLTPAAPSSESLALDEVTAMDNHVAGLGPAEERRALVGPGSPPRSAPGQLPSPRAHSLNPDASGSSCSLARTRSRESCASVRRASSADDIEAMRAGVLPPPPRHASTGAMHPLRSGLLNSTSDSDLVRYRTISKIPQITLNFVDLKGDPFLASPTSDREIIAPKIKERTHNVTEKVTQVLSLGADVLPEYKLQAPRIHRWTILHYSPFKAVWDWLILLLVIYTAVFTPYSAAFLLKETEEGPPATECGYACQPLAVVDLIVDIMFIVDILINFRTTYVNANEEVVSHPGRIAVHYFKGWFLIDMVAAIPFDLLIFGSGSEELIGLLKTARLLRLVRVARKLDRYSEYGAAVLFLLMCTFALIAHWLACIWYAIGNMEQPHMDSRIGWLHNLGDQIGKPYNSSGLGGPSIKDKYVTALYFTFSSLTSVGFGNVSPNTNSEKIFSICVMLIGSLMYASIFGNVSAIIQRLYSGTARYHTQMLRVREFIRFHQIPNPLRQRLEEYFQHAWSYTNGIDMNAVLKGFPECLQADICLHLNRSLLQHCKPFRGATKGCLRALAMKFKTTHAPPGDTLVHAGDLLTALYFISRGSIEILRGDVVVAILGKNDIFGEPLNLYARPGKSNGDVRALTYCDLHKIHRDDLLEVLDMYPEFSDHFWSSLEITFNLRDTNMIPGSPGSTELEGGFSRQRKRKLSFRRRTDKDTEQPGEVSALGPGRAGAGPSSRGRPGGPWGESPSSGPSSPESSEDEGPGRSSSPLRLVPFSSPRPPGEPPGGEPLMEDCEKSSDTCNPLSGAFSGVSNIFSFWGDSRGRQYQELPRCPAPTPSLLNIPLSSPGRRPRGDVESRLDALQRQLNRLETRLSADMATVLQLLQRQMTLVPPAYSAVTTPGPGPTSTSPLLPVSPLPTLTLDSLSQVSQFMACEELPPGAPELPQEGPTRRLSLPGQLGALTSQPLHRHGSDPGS
row,Structure (SMILES),"hERG current change (%, negative = inhibition) at 10uM [%]"
1,S=c1[nH]nc(-c2ccc(Cl)cc2)n1-c1ccc(Cl)cc1,14.1
2,COc1ccc(S(=O)(=O)NNC(=O)Nc2ccc(F)cc2)cc1,10.4
3,O=C(O)CCC(=O)Nc1ccc(Br)cn1,4.02
4,N#C/C(=C\c1ccc2c(c1)OCCO2)C(=O)Nc1ccc(C(=O)O)cc1,15.9
5,COc1cccc(-c2nnc(SCC(=O)N3CCCC3=O)n2-c2ccccc2)c1,-2.2
6,CC(Sc1ccsc1[N+](=O)[O-])C(=O)NCc1ccco1 (stereo not drawn),14.1
7,CC1CCCN(C(=O)c2ccc(NC(=O)CC3SC(N4CCCC4)=NC3=O)cc2)C1 (stereo not drawn),-0.727
8,Cc1cc(C)n(CCc2nc(-c3cccs3)cs2)n1,3.48
9,C=C1C(=O)O[C@H]2C[C@@H](C)[C@@H]3C=CC(=O)[C@@]3(C)C[C@H]12,3.59
10,Cc1cc2nc(-c3ccc(=O)[nH]c3)n(Cc3ccccc3)c2cc1C,-35.2
11,Cc1cc([N+](=O)[O-])ccc1NC(=O)c1ccco1,-5.21
12,CCOC(=O)N1CCC(n2c(SCC(=O)NCCc3ccc(S(N)(=O)=O)cc3)nc3ccccc3c2=O)CC1,21
13,CSc1ccccc1C(=O)N1CCCC(CNC(=O)c2ccc(F)cc2)C1 (stereo not drawn),15.3
14,Cc1cccc(OCCNC(=O)c2cc(-n3cnnc3)ccc2Cl)c1,-4.41
15,CN1CCN(c2ccc(S(=O)(=O)N3CCCCC3)cc2NC(=O)Cc2c(F)cccc2Cl)CC1,-21.8
16,CCN(CC)C(=O)CSc1nc2cc(OC)c(OC)cc2c(=O)n1Cc1ccc(Cl)cc1,-77
17,CCC1C(C#N)=C(N)Oc2c1c(=O)oc1ccccc21 (stereo not drawn),5.71
18,Cc1onc(-c2c(Cl)cccc2Cl)c1C(=O)OCC(=O)c1ccccc1,-12.9
19,COc1ccc(/C=C2/CCCC(C(=O)C(F)(F)F)=C2O)cc1OC,-8.9
20,COc1ccc(CN2CCCC2C(=O)Nc2ccc(OC)c(OC)c2)cc1OC (stereo not drawn),9.17
21,Clc1ccc(-c2csc(N/N=C\c3cccnc3)n2)cc1,6.05
22,CCC(c1nnc(SCC(=O)Nc2ccc(NC(C)=O)cc2)n1Cc1ccccc1)N(C)C (stereo not drawn),-18.7

row,Structure (SMILES),"hERG current change (%, negative = inhibition) at 10uM [%]"
1,COc1ccc(-n2c(SCC(N)=O)nc3sc4c(c3c2=O)CCC4)cc1,-16.9
2,Cc1cc(C)n2nc(SCc3cccc(S(=O)(=O)N(C)C)c3)nc2n1,10.2
3,C=CCOc1c(Cl)cc(CNCCCN2CCOCC2)cc1OC.Cl,-17.2
4,CCN(c1ccccc1)c1nc2ccsc2c(=O)s1,-0.901
5,CN(C)c1ccc(C2N3CC4(C)CN2CC(C)(C3)C4O)cc1 (stereo not drawn),7.92
6,Cc1ccccc1NC(=O)c1ccc2c(c1)C(=O)N(CCC(C)C)C2=O,-2.26
7,O=C1CC(/C=C/c2ccccc2)(C(=O)NC2CCCC2)N1c1ccc(S(=O)(=O)N2CCCC2)cc1 (stereo not drawn),-2.15
8,COC(=O)Nc1cc(C(F)(F)F)ccc1N1CCN(c2ccccc2)CC1,13.4
9,COc1ccc(/C=C/C(=O)N2CCN(c3ccccn3)CC2)cc1,-40.7
10,Cc1cc(C(=O)O)ccc1NCc1cccnc1,20.1
11,O=C(Nc1ccc(N2CCOCC2)cc1N1CCOCC1)c1ccc([N+](=O)[O-])cc1Cl,-3.5
12,COc1cc(OC)cc(C(=O)Nc2cccc3nc(C)ccc23)c1,10.5
13,CN(CC1CCCO1)S(=O)(=O)c1ccc(C(=O)Nc2ccc(S(N)(=O)=O)cc2)cc1 (stereo not drawn),8.73
14,O=c1c(Br)c(NCc2ccccc2)cnn1-c1ccc(F)cc1,-4.27
15,COc1ccc(N2C(=O)/C(=C\c3ccco3)N=C2SCC(=O)NC(C)(C)C)cc1Cl,0.0159
16,Cl.N=c1ccn(Cc2ccc(Cl)c(Cl)c2)cc1,2.55
17,O=c1cc(CN2CCN(S(=O)(=O)c3ccc4c(c3)OCCO4)CC2)c2ccc(O)cc2o1,-4.32
18,Cc1nc(Nc2ccc(C(=O)O)cc2)nc(Nc2ccc(C(=O)O)cc2)c1[N+](=O)[O-],15.3
19,Cc1cccc(NCc2ccc([N+](=O)[O-])s2)c1,-26.7
20,COc1ccc(NC(=S)N2CCCCC2c2cccnc2)cc1 (stereo not drawn),5.47
21,Cc1nc(NS(=O)(=O)c2ccccc2)sc1NC(=O)OCCN(C)C,15
22,CCOc1ccc(NC(=O)C2CCCN(S(=O)(=O)c3c(C)nn(C)c3C)C2)cc1 (stereo not drawn),-16.2

row,Structure (SMILES),"hERG current change (%, negative = inhibition) at 10uM [%]"
1,COc1cccc(OCC(O)CN2CCN(c3ncccn3)CC2)c1.Cl (stereo not drawn),-11
2,Cc1cc(C(=O)NNS(=O)(=O)c2ccccc2C(F)(F)F)nn1C(C)(C)C,0.33
3,CCCOc1ccc(-c2nn(-c3ccccc3)cc2/C=C2\SC(N)=NC2=O)cc1,2.92
4,COc1ccc(NC(=O)CN(C)C2CCCCC2)c([N+](=O)[O-])c1,-8.84
5,O=C(c1ccc(Cl)nc1)N1CCN(S(=O)(=O)c2ccc3c(c2)OCCO3)CC1,-28.8
6,Cc1ncc([N+](=O)[O-])n1Cc1cccc2ccccc12,-11.5
7,CC1(C)Cc2c(sc(NC(=O)C(=O)N3CCCCC3)c2C(=O)O)CO1,12.8
8,Cn1c(C(=O)O)c(CC(=O)NCc2cccnc2)c2ccccc21,-5.43
9,COc1ccc2c(C)cc(SCC#N)nc2c1,1.35
10,O=C(CN1N=C(c2ccccc2)CCC1=O)NCc1ccccc1,-6.78
11,COc1ccc(CC(C)Nc2cccc(F)c2)cc1 (stereo not drawn),17
12,C=CCc1c(C)nc(-c2ccccc2)nc1Nc1ccccc1O,5.18
13,O=C(NC(=O)c1ccccc1O)c1ccc(C(F)(F)F)cc1,19.6
14,CCOC(=O)c1c(NC(=O)c2ccccc2)sc2c(O)c(CN(CC)CC)ccc12.Cl,-2.84
15,NC(=O)CCC(C(=O)O)N1C(=O)c2ccc(O)cc2C1=O (stereo not drawn),23.4
16,CN1C(=O)/C(=C/c2ccc(C(F)(F)F)cc2)Sc2ccc(C(=O)N3CCN(c4ccccn4)CC3)cc21,5.11
17,COC(=O)C(=C/C(C)=C/c1cccs1)C(=O)OC,-13.7
18,C=CCn1c(SCc2ccccc2)nc2c1c(=O)[nH]c(=O)n2C,-21.6
19,CC1(C)CC(=O)C=C(N2CCNCC2)C1,14.9
20,CCOc1ccc(N(CC(=O)NCc2cccc(OC)c2)S(=O)(=O)c2c(C)noc2C)cc1,2.94
21,CC(C)(CNC(=O)c1ccc(Cl)c(S(=O)(=O)N2CCc3ccccc3C2)c1)N1CCOCC1,-50.3
22,CCN1C(=O)c2ccccc2S(=O)c2ccc(C(=O)NCCN(CC(C)C)CC(C)C)cc21 (stereo not drawn),-4.59

row,Structure (SMILES),"hERG current change (%, negative = inhibition) at 10uM [%]"
1,CCOC(=O)c1ccccc1NC(=O)c1cccnc1,-17.2
2,CCN(CC)S(=O)(=O)c1ccc(NC=C(C#N)C#N)cc1,-9.81
3,Cc1cccc(NC(=O)c2cn(-c3ccccc3)nc2-c2ccccc2)c1,7.8
4,O=C(NCc1ccc2c(c1)OCO2)c1ccc(S(=O)(=O)C(F)F)cc1,-47.8
5,Cc1ccc(NS(=O)(=O)c2ccc(OCC(N)=O)cc2)cc1,7.32
6,CC(=O)N1CCc2cc(S(=O)(=O)CCC(=O)NCc3cccs3)ccc21,3.98
7,COC(=O)Cc1[nH]nc2c1C1(CCSCC1)C(C#N)=C(N)O2,-0.931
8,CC(C)OC(=O)c1ccc(Cn2nnc3ccccc3c2=O)cc1,-5.23
9,COc1cc2c(cc1OC)CN(C(=O)COc1ccccc1[N+](=O)[O-])CC2,0.631
10,O=C(CNC(=O)OCc1ccccc1)Nc1ccc(Br)cc1C(=O)c1ccccc1,-15.1
11,COc1cc(C(=O)Nc2cccc(-n3cnnn3)c2)cc(OC)c1OC,0.747
12,Cn1c(-c2ccc(F)c(F)c2)cc2onc(-c3ccccc3)c2c1=O,-21.7
13,CC(CCc1ccccc1)NC(=O)Cc1ccccc1 (stereo not drawn),2.65
14,Cc1cccc(NC(=O)Nc2cnccn2)c1,7.09
15,Cn1c(=O)c(C(=O)N2CCc3ccccc32)cc2cccnc21,-6.73
16,C=CCc1c(C)nc(-c2ccccc2)nc1N/N=C(\C)c1ccc(N)cc1,-0.357
17,O=C(NCCN1CCN(C(=O)c2cccc([N+](=O)[O-])c2)CC1)C(=O)NCc1ccc(Cl)cc1,-50.1
18,Cc1ccc(C(=O)c2ccccc2C(=O)OCC(=O)NCCc2ccccc2)cc1,-52.5
19,O=C(CSc1nnc(CNC(=O)c2c(F)cccc2F)o1)c1ccccc1,-17.7
20,CC(C)CCNC(=O)c1onc(CSc2ccccc2)c1C(=O)NCCC(C)C,12.5
21,CCC(C)(C)NC(=O)CN(Cc1ccccc1)C(=O)CCC(=O)Nc1nccs1,-4.19
